Data from PubChem BioAssay (Tox21).
“And” between values parts separate entries of the source, which are not always exact repeats. Equal entries are not always repeated. The shares of active, inactive and inconclusive entries below differ from those in the screen. For part of these data: Potencies of inconclusive entries are doubtful fits and often do not repeat. Some compounds were tested as several samples or in several runs, with calls that do not always agree. The source made the active and inactive calls. Unless noted, the call rests on the fitted dose curve; in most records, active means well fitted curve in the direction sought with a large enough effect in the repeat runs; inconclusive means weak or mixed curves; inactive means no such curve, though single readings can be large; an effect the other way counts as inactive or inconclusive.

Columns and labels:
[1] = qHTS assay to identify small molecule agonists of the estrogen receptor beta (ER-beta) signaling pathway - cell viability counter screen (AID 1259380); further: nearly all actives have a fitted effect of over 30% in size; further: potency means the concentration at half of the fitted maximal effect
In short: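 HEK293T ER-beta-UAS-bla; 2% CS-FBS; 6 hr pre-plate, 16 hr cpd at 37C/5% CO2; LiveBLAzer read first, then CellTiter-Glo 30 min RT, luminescence.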

[2] = biological target: Progesterone receptor (Homo sapiens) (UniProt P06401); assay: qHTS assay to identify small molecule antagonists of the progesterone receptor (PR) signaling pathway (AID 1346795; active means well fitted inhibition curve with a large enough effect in the signal ratio in the repeat runs, not every such curve was filed as active; inconclusive means weak or mixed curves; the % refers to the signal ratio; further: potency means the concentration at half of the fitted maximal effect; on activity change, negative = inhibition: on the % scale 0 is the no-effect control and ±100 the full control effect); conditions: PR-UAS-bla HEK293T, beta-lactamase FRET ratio, 16 h
Sequence of UniProt P06401 (P06401 whole entry, looked up): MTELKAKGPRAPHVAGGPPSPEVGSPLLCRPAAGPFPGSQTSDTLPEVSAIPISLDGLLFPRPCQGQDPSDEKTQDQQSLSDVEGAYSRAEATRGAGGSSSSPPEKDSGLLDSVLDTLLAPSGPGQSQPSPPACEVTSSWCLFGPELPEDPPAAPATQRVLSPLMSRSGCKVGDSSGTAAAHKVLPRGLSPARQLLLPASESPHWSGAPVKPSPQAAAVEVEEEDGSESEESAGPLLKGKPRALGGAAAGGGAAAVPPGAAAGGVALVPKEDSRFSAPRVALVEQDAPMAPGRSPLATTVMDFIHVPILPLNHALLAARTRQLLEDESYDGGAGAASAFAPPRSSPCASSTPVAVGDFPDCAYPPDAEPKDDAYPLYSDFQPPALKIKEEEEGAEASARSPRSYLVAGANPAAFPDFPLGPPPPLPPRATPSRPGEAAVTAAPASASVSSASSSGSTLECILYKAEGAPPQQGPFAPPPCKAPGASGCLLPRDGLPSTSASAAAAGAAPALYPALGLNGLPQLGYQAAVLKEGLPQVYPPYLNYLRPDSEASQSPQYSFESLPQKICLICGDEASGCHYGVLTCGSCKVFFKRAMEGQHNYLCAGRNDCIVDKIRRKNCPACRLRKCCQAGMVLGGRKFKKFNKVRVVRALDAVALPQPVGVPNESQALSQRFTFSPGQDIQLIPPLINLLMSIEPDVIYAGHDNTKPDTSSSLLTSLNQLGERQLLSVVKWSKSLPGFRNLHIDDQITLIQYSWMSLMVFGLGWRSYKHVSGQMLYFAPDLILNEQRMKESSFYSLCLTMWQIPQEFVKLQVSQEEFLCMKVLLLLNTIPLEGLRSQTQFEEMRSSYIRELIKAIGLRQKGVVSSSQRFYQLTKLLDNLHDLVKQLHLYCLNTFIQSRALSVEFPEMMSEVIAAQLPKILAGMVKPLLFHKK
In short: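 Antagonist mode with agonist R5020 at 1 nM final and 16 hr incubation at 37C. Reporter was beta-lactamase driven by UAS in HEK293T (PR-UAS-bla), 2% charcoal-stripped serum; signal from LiveBLAzer FRET substrate, 2 hr at room temperature.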

[3] = biological target: Thyrotropin receptor (Homo sapiens) (UniProt P16473); assay: qHTS assay to identify small molecule antagonists of the thyroid stimulating hormone receptor (TSHR) signaling pathway (AID 1259385; calls by dose curve; further: nearly all actives have a fitted effect of over 20% in size; further: potency means the concentration at half of the fitted maximal effect; on activity change, negative = inhibition: on the % scale 0 is the no-effect control and ±100 the full control effect); conditions: TSHR-HEK293 cAMP HTRF, TSH-stimulated antagonist mode; activity change, negative = inhibition: at 92.4 µM (top of the series) unless noted
Sequence of UniProt P16473 (P16473 whole entry, looked up): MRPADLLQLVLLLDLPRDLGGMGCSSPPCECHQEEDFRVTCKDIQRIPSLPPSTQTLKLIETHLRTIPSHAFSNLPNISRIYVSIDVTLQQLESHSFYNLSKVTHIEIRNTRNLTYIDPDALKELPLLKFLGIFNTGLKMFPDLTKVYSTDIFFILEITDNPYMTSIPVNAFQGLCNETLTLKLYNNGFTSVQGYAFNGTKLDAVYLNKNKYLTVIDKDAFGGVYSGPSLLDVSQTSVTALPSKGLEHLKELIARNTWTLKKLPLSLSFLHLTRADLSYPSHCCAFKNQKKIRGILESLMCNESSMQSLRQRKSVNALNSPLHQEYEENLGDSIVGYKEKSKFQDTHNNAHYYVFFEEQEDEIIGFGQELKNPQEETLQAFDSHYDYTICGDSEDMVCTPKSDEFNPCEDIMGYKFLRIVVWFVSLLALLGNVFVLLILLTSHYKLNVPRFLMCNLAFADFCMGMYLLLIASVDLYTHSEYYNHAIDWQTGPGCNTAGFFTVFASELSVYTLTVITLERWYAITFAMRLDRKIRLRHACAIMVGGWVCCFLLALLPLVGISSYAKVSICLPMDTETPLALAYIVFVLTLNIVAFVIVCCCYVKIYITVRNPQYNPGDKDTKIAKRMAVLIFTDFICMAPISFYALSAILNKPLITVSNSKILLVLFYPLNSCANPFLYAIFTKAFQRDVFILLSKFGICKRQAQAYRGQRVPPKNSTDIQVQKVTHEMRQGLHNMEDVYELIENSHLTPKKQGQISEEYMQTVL
In short: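 TSHR-HEK293 cells (800/well) plated 18 h, then compounds with Ro20-1724 and TSH at 1.5 ng/mL final, 30 min at room temperature. cAMP quantified by HTRF (cAMP-d2/anti-cAMP-cryptate, 1 h); 15 concentrations in triplicate.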

[4] = biological target: Progesterone receptor (Homo sapiens) (UniProt P06401); assay: qHTS assay to identify small molecule agonists of the progesterone receptor (PR) signaling pathway (AID 1346784; calls by dose curve; further: nearly all actives have a fitted effect of over 30% in size; further: potency means the concentration at half of the fitted maximal effect; on activation: on the % scale 0 is the no-effect control and ±100 the full control effect); conditions: PR-UAS-bla HEK293T, beta-lactamase FRET ratio, 16 h; activation: at 92.4 µM (top of the series) unless noted
In short: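 Agonist qHTS: compounds pinned onto 3,000 PR-UAS-bla HEK 293T cells per well in charcoal-stripped serum medium, 16hr at 37C, then beta-lactamase activity measured by LiveBLAzer FRET fluorescence after 2 hours at room temperature.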

[5] = qHTS assay to identify small molecule antagonists of the progesterone receptor (PR) signaling pathway - cell viability counter screen (AID 1346798); further: nearly all actives have a fitted effect of over 50% in size; further: potency means the concentration at half of the fitted maximal effect
In short: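 Cytotoxicity read as CellTiter-Glo luminescence (30 min, room temperature) in the same wells as the beta-lactamase readout. HEK293T PR-UAS-bla cells in charcoal-stripped 2% FBS received compound and R5020, then 16 h at 37C, 5% CO2.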

[6] = qHTS assay to identify small molecule agonists of the progesterone receptor (PR) signaling pathway - cell viability counter screen (AID 1346799; calls by dose curve; further: potency means the concentration at half of the fitted maximal effect; nearly all actives have a fitted effect of over 45% in size)
In short: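 Cytotoxicity measured by CellTiter-Glo luminescence (30 min, RT) in the same wells as the PR beta-lactamase agonist read. Those HEK293T cells had 16 h compound treatment at 37 C in 2% charcoal-stripped FBS medium.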

[7] = qHTS assay to identify small molecule antagonists of the TGF-beta/Smad signaling pathway - cell viability counter screen (AID 1346824); further: potency means the concentration at half of the fitted maximal effect; nearly all actives have a fitted effect of over 50% in size
In short: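 SBE-bla HEK 293T cells, incubated overnight, then compound plus 0.25 ng/mL TGF-beta1 (stock added) for 5 hr at 37 C. Viability was read in the same wells by CellTiter-Glo luminescence after 30 min at room temperature.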

[8] = qHTS assay to identify small molecule antagonists of the estrogen receptor beta (ER-beta) signaling pathway - cell viability counter screen (AID 1259382); further: nearly all actives have a fitted effect of over 55% in size; further: potency means the concentration at half of the fitted maximal effect
In short: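 Cells: ER-beta-UAS-bla HEK293T, 2,000/well, 2% CS-FBS, 6 hr settle. Cpd + E2 (1nM final), 16 hr, 37C/5% CO2. Bla FRET substrate 2 hr RT, then CellTiter-Glo 30 min RT, luminescence.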

[9] = biological target: Estrogen receptor (Homo sapiens) (UniProt P03372); assay: qHTS assay to identify small molecule agonists of the estrogen receptor alpha (ER-alpha) signaling pathway in the presence of an antagonist (AID 1259383; calls by dose curve; further: top concentration of the series differs between compounds; on the % scale 0 is the no-effect control and ±100 the full control effect; nearly all actives have a fitted effect of over 15% in size)
Sequence of UniProt P03372 (P03372 whole entry, looked up): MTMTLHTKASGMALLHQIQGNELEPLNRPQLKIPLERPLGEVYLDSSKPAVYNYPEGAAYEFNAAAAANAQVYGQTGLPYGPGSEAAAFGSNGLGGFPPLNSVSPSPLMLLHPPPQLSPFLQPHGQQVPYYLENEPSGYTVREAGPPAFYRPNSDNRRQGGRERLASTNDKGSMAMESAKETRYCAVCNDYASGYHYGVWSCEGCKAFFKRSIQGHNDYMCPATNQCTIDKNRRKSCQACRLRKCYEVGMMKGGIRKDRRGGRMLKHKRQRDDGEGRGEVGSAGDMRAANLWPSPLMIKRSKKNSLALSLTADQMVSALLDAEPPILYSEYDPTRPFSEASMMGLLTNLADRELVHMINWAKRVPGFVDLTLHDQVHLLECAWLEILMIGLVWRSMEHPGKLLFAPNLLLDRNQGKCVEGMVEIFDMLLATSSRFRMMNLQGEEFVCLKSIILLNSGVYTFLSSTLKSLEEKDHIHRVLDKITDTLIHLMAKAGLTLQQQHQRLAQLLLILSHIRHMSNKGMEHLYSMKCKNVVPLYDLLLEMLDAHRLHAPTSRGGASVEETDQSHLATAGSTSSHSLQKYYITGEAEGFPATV
In short: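 VM7Luc4E2, endog. ER-alpha + 4×ERE-luc; charcoal-stripped FBS, phenol red-free, 5 d; 24hr plating; +10.0nM ICI-182,780 (final); cpds 15 conc, 22hr, 37C/5% CO2; ONE-Glo luminescence.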

[10] = biological target: Androgen receptor (Homo sapiens) (UniProt P10275); assay: qHTS assay to identify small molecule agonists of the androgen receptor (AR) signaling pathway in the presence of an antagonist (AID 1259381; calls by dose curve; further: potency means the concentration at half of the fitted maximal effect; nearly all actives have a fitted effect of over 15% in size)
Sequence of UniProt P10275 (P10275 whole entry, looked up): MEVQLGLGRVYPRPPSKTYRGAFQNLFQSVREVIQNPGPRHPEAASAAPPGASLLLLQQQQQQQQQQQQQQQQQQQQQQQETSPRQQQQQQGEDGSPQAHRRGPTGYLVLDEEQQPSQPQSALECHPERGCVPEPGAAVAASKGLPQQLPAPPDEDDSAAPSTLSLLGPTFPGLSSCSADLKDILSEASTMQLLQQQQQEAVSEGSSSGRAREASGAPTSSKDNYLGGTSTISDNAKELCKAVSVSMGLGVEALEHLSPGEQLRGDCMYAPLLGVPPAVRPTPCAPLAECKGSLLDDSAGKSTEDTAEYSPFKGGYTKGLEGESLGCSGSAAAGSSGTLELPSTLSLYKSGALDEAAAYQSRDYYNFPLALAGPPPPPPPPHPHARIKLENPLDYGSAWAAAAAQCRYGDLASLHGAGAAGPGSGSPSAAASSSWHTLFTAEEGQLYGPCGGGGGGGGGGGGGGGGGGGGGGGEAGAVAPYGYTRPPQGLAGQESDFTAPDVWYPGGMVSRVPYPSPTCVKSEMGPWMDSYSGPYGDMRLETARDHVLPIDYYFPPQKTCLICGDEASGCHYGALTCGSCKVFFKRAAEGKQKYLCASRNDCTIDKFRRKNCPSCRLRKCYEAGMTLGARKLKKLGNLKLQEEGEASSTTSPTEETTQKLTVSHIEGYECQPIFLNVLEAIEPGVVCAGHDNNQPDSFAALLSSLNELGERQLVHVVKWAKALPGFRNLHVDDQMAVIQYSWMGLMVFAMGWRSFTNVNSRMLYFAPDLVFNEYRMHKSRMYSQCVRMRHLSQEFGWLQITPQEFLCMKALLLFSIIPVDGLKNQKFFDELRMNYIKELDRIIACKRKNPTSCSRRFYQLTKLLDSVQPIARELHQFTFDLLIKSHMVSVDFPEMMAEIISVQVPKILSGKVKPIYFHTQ
In short: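 MDA-kb2 cells, 3,000/well, rested 5hr at 37C/0% CO2 → nilutamide 3.0uM final or buffer → compounds, 15 conc. → 16hr at 37C → ONE-Glo, 30min RT → luminescence.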

[11] = activity change, negative = inhibition: at 92.4 µM (top of the series) unless noted
Tags describe the fitted curve by direction and shape or compound fluorescence and quenching.

Structure (SMILES): CC(=O)Nc1cc([As](=O)(O)O)ccc1O
- Potency [1]: inactive
- Potency [2, 11]: inactive

Structure (SMILES): CC(=NC#N)N(C)Cc1ccc(Cl)nc1
- Potency [1]: inactive

Structure (SMILES): O=C1CC(=O)NC(=O)N1
- activity change, negative = inhibition [3]: inconclusive: -19.5%
- Potency [4]: inactive
- Potency [5]: inactive

Structure (SMILES): NN=C(N)N
- Potency [1]: inactive and inconclusive: 33.5 µM [cytotoxic, single point]
- Potency [6]: inconclusive: 1.37 µM [cytotoxic, single point]

Structure (SMILES): CCCN(CCC)c1c([N+](=O)[O-])cc(C(C)C)cc1[N+](=O)[O-]
- Potency [1]: inconclusive: 27.3 µM [rising, single point]
- Potency [2, 11]: inconclusive: 33.6 µM [rising, partial curve]
- activity change, negative = inhibition [2, 11]: inconclusive: -41%
- Potency [6]: inconclusive: 13.7 µM [rising, full curve]
- Potency [7]: inconclusive: 10.7 µM [cytotoxic, full curve, poor fit]

Structure (SMILES): O=C(O)CC(O)(CC(=O)O)C(=O)O
- Potency [8]: inactive
- Potency [4]: active: 0.0878 µM

Structure (SMILES): COc1cc(N)c(Cl)cc1C(=O)NC1CN2CCC1CC2 (stereo not given)
- Potency [3]: inactive

Structure (SMILES): O=C(NCO)NCO
- Potency [9]: inactive
- Potency [4]: inactive
- activity change, negative = inhibition [2, 11]: inconclusive: 15.5%

Structure (SMILES): C[N+](C)(C)CC(=O)O
- Potency [1]: inactive
- Potency [5]: inconclusive: 1.37 µM [cytotoxic, single point]
- Potency [6]: inconclusive: 2.66 µM [cytotoxic, full curve, poor fit]

Structure (SMILES): NCc1cccnc1
- Potency [8]: inactive

Structure (SMILES): BrCC(Br)C1CCC(Br)C(Br)C1 (stereo not given)
- Potency [10]: inconclusive: 27.2 µM [rising, partial curve, poor fit]
- Potency [3]: inconclusive: 27.2 µM [falling, partial curve, poor fit]
- Potency [2, 11]: inconclusive: 15.3 µM [rising, full curve]
- Potency [7]: inconclusive: 24.4 µM [cytotoxic, single point]

Structure (SMILES): CC(=O)C(C)(C)C
- Potency [8]: inactive
- Potency [2, 11]: inactive

Structure (SMILES): O=[N+]([O-])c1ccc(CBr)cc1
- Potency [8]: inactive
- Potency [6]: inconclusive: 76 µM [rising, single point]

Structure (SMILES): O=Cc1ccco1
- Potency [1]: inconclusive: 0.591 µM [cytotoxic, single point]
- Potency [6]: inconclusive: 66.3 µM [rising, partial curve, poor fit]

Structure (SMILES): O=P1(NCCCl)OCCCN1CCCl (stereo not given)
- Potency [1]: inactive
- Potency [5]: inactive

Structure (SMILES): Cl/C=C/Cl
- Potency [9]: inactive

Structure (SMILES): CN(C)C(=O)Oc1cc(OC(=O)N(C)C)cc(C(O)CNC(C)(C)C)c1 (stereo not given)
- Potency [3]: inactive

Structure (SMILES): CCOC(=O)Cc1ccccc1
- Potency [3]: inactive

Structure (SMILES): C#CCO
- Potency [3]: inconclusive: 7.84 µM [rising, partial curve, poor fit]

Structure (SMILES): C=C(C)C(=O)OCCCCOC(=O)C(=C)C
- Potency [3]: inconclusive: 0.611 µM [falling, single point]

Structure (SMILES): N#CCCl
- Potency [8]: inconclusive: 10.1 µM [cytotoxic, full curve, poor fit]
- activation [4]: inconclusive: 11.1%
- Potency [6]: inconclusive: 80.2 µM [rising, single point]

Structure (SMILES): Cc1ccc(N)cc1
- Potency [1]: inconclusive: 14.8 µM [cytotoxic, single point]
- activity change, negative = inhibition [2, 11]: inconclusive: -19% and inconclusive: -5.9%
- Potency [5]: inconclusive: 68.6 µM [rising, single point]

Structure (SMILES): CCCOC(=O)c1ccccc1C(=O)OCCC
- Potency [1]: inactive
- activity change, negative = inhibition [2, 11]: inconclusive: -24%
- activity change, negative = inhibition ([2]; at 92.4 µM (top of the series)): inactive: -27.2%

Structure (SMILES): CNC(=O)O/N=C(/CSC)C(C)(C)C
- Potency [8]: inactive

Structure (SMILES): C[C@H]1O[C@H](OC2[C@@H](O)[C@@H](O)C(O)[C@H](O)[C@H]2O)[C@@H](N)C[C@@H]1N=C(N)C(=O)O (stereo not given in full)
- Potency [1]: inactive
- Potency [5]: inactive

Structure (SMILES): Cc1cc(Cl)ccc1N
- Potency [1]: inconclusive: 2.79 µM [cytotoxic, single point]
- activity change, negative = inhibition [2, 11]: inconclusive: -10.6%
- activity change, negative = inhibition ([2]; at 92.4 µM (top of the series)): inactive: -2.6% and inactive: 5.71%
- Potency [6]: inconclusive: 2.79 µM [rising, single point]
- Potency [7]: inconclusive: 6.03 µM [cytotoxic, single point]

Structure (SMILES): O=[N+]([O-])O[C@H]1CO[C@H]2[C@@H]1OC[C@H]2O[N+](=O)[O-]
- Potency [1]: inconclusive: 33.5 µM [rising, single point]
- activity change, negative = inhibition [2, 11]: inconclusive: -26.9% [at 42.5 µM]
- Potency [5]: inconclusive: 29.8 µM [cytotoxic, single point]
